Experimental findings from paper PMC4168999 are described below.

By UniProt entry, the sequences of proteins in these tests, tags left out.
UniProt O75800: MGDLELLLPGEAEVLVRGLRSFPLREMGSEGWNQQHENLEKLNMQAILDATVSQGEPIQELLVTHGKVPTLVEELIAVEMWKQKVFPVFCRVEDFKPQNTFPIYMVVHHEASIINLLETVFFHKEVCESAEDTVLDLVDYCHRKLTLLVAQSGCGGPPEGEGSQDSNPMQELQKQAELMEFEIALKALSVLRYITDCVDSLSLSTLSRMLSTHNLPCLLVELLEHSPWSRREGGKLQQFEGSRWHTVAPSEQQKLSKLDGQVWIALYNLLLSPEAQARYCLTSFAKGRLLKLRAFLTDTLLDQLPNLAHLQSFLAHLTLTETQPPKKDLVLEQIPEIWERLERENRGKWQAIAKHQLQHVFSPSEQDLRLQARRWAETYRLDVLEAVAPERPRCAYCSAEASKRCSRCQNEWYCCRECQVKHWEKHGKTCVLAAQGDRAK
UniProt Q8TE73: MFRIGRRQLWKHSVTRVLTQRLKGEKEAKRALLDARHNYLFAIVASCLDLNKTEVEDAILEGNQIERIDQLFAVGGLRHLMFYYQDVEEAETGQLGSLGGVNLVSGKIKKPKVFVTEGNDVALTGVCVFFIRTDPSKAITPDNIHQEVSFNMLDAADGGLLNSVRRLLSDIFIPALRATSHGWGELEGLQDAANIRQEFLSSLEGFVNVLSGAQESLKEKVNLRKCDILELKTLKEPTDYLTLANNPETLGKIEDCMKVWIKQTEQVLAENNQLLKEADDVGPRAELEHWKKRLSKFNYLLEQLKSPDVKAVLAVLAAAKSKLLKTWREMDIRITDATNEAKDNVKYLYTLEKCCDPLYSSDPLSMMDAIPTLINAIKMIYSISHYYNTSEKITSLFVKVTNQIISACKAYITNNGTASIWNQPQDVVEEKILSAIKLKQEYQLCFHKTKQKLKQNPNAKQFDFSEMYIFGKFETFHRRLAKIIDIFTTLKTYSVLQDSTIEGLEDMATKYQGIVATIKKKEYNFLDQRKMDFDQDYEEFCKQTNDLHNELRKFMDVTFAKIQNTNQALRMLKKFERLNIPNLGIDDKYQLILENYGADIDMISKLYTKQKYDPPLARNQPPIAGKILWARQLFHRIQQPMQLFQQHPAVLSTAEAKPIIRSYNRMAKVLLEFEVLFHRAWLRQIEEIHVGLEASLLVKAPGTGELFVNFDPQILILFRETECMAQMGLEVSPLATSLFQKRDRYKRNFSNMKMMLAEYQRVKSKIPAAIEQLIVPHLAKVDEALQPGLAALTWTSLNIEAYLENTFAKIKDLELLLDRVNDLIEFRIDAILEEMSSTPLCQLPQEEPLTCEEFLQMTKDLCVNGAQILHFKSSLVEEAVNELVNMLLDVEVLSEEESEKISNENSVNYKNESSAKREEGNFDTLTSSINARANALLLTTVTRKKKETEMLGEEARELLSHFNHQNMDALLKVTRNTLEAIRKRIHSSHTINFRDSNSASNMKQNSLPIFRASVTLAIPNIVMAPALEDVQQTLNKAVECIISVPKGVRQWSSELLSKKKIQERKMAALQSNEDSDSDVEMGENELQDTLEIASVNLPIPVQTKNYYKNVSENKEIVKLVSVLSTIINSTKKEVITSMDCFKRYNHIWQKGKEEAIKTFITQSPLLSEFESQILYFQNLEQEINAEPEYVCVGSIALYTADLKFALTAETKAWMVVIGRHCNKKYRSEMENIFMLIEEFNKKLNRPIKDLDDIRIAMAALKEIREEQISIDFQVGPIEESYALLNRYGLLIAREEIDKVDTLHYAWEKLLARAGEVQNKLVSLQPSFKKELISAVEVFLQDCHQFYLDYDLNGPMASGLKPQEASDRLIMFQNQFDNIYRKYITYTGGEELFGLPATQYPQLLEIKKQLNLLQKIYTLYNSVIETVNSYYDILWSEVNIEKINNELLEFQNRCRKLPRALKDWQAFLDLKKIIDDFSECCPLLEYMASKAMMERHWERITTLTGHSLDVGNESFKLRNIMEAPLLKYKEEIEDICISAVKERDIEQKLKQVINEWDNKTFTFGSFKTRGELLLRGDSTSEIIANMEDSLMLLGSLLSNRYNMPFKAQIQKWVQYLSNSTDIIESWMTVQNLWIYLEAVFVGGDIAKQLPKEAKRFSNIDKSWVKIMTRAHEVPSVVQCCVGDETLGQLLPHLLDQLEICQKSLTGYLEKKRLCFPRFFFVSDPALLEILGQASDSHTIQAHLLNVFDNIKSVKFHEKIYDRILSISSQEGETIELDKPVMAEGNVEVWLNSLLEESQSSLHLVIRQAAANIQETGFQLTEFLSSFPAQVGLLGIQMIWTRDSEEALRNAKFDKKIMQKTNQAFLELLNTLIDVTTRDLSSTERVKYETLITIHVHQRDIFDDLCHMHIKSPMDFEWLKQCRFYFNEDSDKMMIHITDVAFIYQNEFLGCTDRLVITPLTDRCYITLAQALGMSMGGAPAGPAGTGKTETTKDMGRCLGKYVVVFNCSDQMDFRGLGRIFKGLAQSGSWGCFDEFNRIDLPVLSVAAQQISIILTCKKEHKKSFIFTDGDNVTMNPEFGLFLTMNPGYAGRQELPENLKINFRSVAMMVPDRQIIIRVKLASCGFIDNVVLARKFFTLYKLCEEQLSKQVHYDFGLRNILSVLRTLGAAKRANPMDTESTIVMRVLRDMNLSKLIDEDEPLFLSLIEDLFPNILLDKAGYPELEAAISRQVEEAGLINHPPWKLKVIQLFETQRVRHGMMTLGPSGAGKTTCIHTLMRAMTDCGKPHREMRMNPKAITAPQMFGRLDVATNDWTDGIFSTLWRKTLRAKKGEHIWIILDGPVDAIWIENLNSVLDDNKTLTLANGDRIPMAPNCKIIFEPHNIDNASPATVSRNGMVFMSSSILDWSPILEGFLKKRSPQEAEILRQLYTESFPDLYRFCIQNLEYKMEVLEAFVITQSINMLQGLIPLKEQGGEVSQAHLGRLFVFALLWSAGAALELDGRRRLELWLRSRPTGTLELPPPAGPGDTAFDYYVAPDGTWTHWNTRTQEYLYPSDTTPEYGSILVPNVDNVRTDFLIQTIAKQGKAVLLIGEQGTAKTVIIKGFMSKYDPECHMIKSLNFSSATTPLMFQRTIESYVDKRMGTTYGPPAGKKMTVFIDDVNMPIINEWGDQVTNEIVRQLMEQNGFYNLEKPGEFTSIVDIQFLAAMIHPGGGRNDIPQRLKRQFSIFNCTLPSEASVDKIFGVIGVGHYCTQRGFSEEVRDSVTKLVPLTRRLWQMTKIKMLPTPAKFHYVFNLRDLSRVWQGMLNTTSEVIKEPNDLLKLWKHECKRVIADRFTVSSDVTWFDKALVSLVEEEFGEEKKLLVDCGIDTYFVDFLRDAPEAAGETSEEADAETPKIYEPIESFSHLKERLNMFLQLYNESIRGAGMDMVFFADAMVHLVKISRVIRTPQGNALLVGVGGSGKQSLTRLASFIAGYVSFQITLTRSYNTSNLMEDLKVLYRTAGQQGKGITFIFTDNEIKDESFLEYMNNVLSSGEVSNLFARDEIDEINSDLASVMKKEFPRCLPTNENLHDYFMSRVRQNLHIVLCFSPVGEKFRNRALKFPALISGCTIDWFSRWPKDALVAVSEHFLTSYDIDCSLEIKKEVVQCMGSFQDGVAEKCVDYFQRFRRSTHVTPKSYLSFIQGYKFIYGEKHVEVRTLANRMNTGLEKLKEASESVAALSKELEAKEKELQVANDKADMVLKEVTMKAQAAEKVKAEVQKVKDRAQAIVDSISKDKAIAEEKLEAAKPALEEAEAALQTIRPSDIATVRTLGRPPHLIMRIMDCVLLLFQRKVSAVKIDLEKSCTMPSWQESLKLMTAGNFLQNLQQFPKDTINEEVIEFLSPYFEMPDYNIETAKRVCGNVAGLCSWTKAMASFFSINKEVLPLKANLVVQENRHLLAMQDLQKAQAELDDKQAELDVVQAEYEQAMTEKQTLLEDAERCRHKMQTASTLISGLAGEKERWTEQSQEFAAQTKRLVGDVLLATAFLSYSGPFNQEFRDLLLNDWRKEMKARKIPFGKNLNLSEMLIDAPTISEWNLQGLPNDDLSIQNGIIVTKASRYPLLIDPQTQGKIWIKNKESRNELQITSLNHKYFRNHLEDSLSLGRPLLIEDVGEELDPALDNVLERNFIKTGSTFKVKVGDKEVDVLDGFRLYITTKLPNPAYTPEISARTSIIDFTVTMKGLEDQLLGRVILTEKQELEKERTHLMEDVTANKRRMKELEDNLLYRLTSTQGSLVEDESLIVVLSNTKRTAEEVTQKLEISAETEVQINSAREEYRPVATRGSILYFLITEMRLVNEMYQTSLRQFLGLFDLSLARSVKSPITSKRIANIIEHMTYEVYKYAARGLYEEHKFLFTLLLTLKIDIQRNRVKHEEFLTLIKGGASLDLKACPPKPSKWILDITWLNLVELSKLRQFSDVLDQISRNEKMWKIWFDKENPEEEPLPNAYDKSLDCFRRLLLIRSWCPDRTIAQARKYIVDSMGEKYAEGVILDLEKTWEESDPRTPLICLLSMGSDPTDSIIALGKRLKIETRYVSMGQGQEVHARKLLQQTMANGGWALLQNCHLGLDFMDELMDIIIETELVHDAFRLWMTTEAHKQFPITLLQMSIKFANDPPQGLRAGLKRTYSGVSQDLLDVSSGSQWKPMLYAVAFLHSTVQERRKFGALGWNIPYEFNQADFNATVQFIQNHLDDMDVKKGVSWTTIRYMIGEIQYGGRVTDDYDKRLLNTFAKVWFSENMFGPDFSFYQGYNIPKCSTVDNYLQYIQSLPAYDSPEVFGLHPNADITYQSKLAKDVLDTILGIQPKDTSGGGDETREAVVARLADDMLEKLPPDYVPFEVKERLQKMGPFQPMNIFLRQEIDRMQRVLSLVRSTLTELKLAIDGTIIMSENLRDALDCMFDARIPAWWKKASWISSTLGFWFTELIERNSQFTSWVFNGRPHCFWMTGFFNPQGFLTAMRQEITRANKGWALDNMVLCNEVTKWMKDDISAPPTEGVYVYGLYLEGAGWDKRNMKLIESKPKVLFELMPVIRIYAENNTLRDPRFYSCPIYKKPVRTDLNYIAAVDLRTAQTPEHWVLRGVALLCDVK

B1: DNALI1 (protein, UniProt O14645 1-258)
chain: MIPPADSLLKYDTPVLVSRNTEKRSPKARLLKVSPQQPGPSGSAPQPPKTKLPSTPCVPDPTKQAEEILNAILPPREWVEDTQLWIQQVSSTPSTRMDVVHLQEQLDLKLQQRQARETGICPVRRELYSQCFDELIREVTINCAERGLLLLRVRDEIRMTIAAYQTLYESSVAFGMRKALQAEQGKSDMERKIAELETEKRDLERQVNEQKAKCEATEKRESERRQVEEKKHNEEIQFLKRTNQQLKAQLEGIIAPKK
B2: DNAI2 (protein, UniProt Q9GZS0 1-605)
chain: MEIVYVYVKKRSEFGKQCNFSDRQAELNIDIMPNPELAEQFVERNPVDTGIQCSISMSEHEANSERFEMETRGVNHVEGGWPKDVNPLELEQTIRFRKKVEKDENYVNAIMQLGSIMEHCIKQNNAIDIYEEYFNDEEAMEVMEEDPSAKTINVFRDPQEIKRAATHLSWHPDGNRKLAVAYSCLDFQRAPVGMSSDSYIWDLENPNKPELALKPSSPLVTLEFNPKDSHVLLGGCYNGQIACWDTRKGSLVAELSTIESSHRDPVYGTIWLQSKTGTECFSASTDGQVMWWDIRKMSEPTEVVILDITKKEQLENALGAISLEFESTLPTKFMVGTEQGIVISCNRKAKTSAEKIVCTFPGHHGPIYALQRNPFYPKNFLTVGDWTARIWSEDSRESSIMWTKYHMAYLTDAAWSPVRPTVFFTTRMDGTLDIWDFMFEQCDPTLSLKVCDEALFCLRVQDNGCLIACGSQLGTTTLLEVSPGLSTLQRNEKNVASSMFERETRREKILEARHREMRLKEKGKAEGRDEEQTDEELAVDLEALVSKAEEEFFDIIFAELKKKEADAIKLTPVPQQPSPEEDQVVEEGEEAAGEEGDEEVEEDLA
B3: DNAAF2/KTU (protein, UniProt Q9NVR5 1-837)
chain: MAKAAASSSLEDLDLSGEEVQRLTSAFQDPEFRRMFSQYAEELTDPENRRRYEAEITALERERGVEVRFVHPEPGHVLRTSLDGARRCFVNVCSNALVGAPSSRPGSGGDRGAAPGSHWSLPYSLAPGREYAGRSSSRYMVYDVVFHPDALALARRHEGFRQMLDATALEAVEKQFGVKLDRRNAKTLKAKYKGTPEAAVLRTPLPGVIPARPDGEPKGPLPDFPYPYQYPAAPGPRAPSPPEAALQPAPTEPRYSVVQRHHVDLQDYRCSRDSAPSPVPHELVITIELPLLRSAEQAALEVTRKLLCLDSRKPDYRLRLSLPYPVDDGRGKAQFNKARRQLVVTLPVVLPAARREPAVAVAAAAPEESADRSGTDGQACASAREGEAGPARSRAEDGGHDTCVAGAAGSGVTTLGDPEVAPPPAAAGEERVPKPGEQDLSRHAGSPPGSVEEPSPGGENSPGGGGSPCLSSRSLAWGSSAGRESARGDSSVETREESEGTGGQRSACAMGGPGTKSGEPLCPPLLCNQDKETLTLLIQVPRIQPQSLQGDLNPLWYKLRFSAQDLVYSFFLQFAPENKLSTTEPVISISSNNAVIELAKSPESHGHWREWYYGVNNDSLEERLFVNEENVNEFLEEVLSSPFKQSMSLTPPLIEVLQVTDNKIQINAKLQECSNSDQLQGKEERVNEESHLTEKEYIEHCNTPTTDSDSSIAVKALQIDSFGLVTCFQQESLDVSQMILGKSQQPESKMQSEFIKEKSATCSNEEKDNLNESVITEEKETDGDHLSSLLNKTTVHNIPGFDSIKETNMQDGSVQVIKDHVTNCAFSFQNSLLYDLD
B4: DNAAF3 (protein, UniProt Q8N9W5 1-541)
chain: MTTPAGSGSGFGSVSWWGLSPALDLQAESPPVDPDSQADTVHSNPELDVLLLGSVDGRHLLRTLSRAKFWPRRRFNFFVLENNLEAVARHMLIFSLALEEPEKMGLQERSETFLEVWGNALLRPPVAAFVRAQADLLAHLVPEPDRLEEQLPWLSLRALKFRERDALEAVFRFWAGGEKGPQAFPMSRLWDSRLRHYLGSRYDARRGVSDWDLRMKLHDRGAQVIHPQEFRRWRDTGVAFELRDSSAYHVPNRTLASGRLLSYRGERVAARGYWGDIATGPFVAFGIEADDESLLRTSNGQPVKTAGEITQHNVTELLRDVAAWGRARATGGDLEEQQHAEGSPEPGTPAAPTPESFTVHFLPLNSAQTLHHKSCYNGRFQLLYVACGMVHLLIPELGACVAPGGNLIVELARYLVDVRQEQLQGFNTRVRELAQAAGFAPQTGARPSETFARFCKSQESALGNTVPAVEPGTPPLDILAQPLEASNPALEGLTQPLQGGTPHCEPCQLPSESPGSLSEVLAQPQGALAPPNCESDSKTGV

No constants are given. Whether binding was seen depends on the method and setting. In cells and extracts the contact can be indirect. Some entries that bind do so weakly or less than the wild type.

In the assay the target is T1, HEATR2 (human (endogenous in normal human bronchial epithelial cells)) (UniProt Q86Y56).
T1 sequence: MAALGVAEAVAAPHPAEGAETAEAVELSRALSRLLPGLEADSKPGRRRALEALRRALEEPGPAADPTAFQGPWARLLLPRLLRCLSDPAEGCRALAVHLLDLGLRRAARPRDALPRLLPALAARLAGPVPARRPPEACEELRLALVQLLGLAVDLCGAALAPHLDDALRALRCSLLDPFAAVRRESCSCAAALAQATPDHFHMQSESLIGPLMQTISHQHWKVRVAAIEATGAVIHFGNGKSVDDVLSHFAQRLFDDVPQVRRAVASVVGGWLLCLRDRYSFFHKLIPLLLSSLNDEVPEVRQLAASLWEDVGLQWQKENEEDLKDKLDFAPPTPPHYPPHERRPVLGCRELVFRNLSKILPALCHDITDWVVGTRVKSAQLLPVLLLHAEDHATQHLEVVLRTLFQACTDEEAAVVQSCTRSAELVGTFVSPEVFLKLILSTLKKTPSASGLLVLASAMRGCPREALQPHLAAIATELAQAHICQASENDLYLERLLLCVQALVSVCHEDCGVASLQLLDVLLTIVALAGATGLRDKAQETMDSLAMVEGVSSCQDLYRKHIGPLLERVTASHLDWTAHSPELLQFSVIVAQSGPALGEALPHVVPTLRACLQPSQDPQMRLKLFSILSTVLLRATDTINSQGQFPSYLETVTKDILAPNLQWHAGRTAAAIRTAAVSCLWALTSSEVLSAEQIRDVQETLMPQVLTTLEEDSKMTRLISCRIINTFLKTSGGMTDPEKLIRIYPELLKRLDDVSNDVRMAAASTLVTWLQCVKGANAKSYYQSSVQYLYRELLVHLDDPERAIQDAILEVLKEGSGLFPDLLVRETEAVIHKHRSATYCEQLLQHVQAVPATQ
In words: co-IP; endogenous HEATR2 precipitated with anti-HEATR2 (Proteintech) from whole cell lysates of terminally differentiated normal human bronchial epithelial cells (40 days post-ALI); control rabbit IgG (GFP); lysis buffer 50 mM Tris-HCl pH 7.5, 100 mM NaCl, 10% glycerol, 0.5 mM EDTA, 0.5% IGEPAL, 0.15% Triton-X 100; overnight at 4°C; Dynabeads G; immunoblot. On the technique in general: Immunoblotting shows a protein as a band on a membrane.
With ZMYND10 (from UniProt O75800 1-440), the binding result was “no binding”. Turning to DNAH5 (from UniProt Q8TE73 1-4624), the binding result is given as “no binding”. For B1, the binding result is given as “no binding”. For B2, the binding result was “binds”. In the case of B3, the binding entry was “no binding”. For B4, the binding entry is reported as “no binding”.
